This passage reports AUC and IC50 results from the supplement of paper PMC4967469.

pIC50: −log10 of the molar value. A lower IC50 marks a more sensitive line; a fit beyond the top or the lowest dose is shown as a bound at that dose. For AUC the same curve is integrated over the 256-fold range of doses and scaled to a fraction; values near 1 show little effect. A top dose marked as inferred was derived from the fitted curves, not read from the paper.

What all share (assay): Viability of human cancer cell lines after 72 h of drug (GDSC screen)
Compound in one assay: Nc1cccc2c1CN(C1CCC(=O)NC1=O)C2=O [Lenalidomide]
The following applies: top dose 5 µM; top dose inferred. As to the method: (§1)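 Human cancer cell lines in 384-well plates, medium with 10% serum, drug for 72 h over a 256-fold dose range (nine 2-fold or five 4-fold steps up to the top dose). Adherent lines were fixed and stained with the nucleic acid dye Syto60, suspension lines read with resazurin; signal relative to control wells, capped at 0 and 100%. One two-parameter sigmoid per drug and line, fitted in a mixed model over all curves with the slope shared within a line.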

Compound in another assay: COc1ccc(COc2ccc(Cc3cnc(N)nc3N)cc2OC)cc1 [GW-2580]
The following applies: top dose 20 µM; top dose inferred. As to the method:
as §1

Compound in the next assay: CC(C)N(CCCNC(=O)Nc1ccc(C(C)(C)C)cc1)C[C@H]1O[C@@H](n2cc(Br)c3c(N)ncnc32)[C@H](O)[C@@H]1O [SGC0946]
The following applies: top dose 0.5 µM; top dose inferred. How it is done: as §1

Compound in a further assay: CCC/C=C/C=C/C(=O)O[C@H]1/C(=C/C(=O)OC)C[C@H]2C[C@H]([C@@H](C)O)OC(=O)C[C@H](O)C[C@@H]3C[C@H](OC(C)=O)C(C)(C)[C@](O)(C[C@@H]4C/C(=C/C(=O)OC)C[C@H](/C=C/C(C)(C)[C@]1(O)O2)O4)O3 [Bryostatin 1]
The following applies: top dose 0.008 µM; top dose inferred. As to the method:
as §1

Turning to HCT-15 (large intestine, adherent), the AUC with Lenalidomide came out at 0.985; in the assay with GW-2580 it was 0.981; in the assay with SGC0946 it was 0.985; in the assay with Bryostatin 1, 0.97. The negative logarithm of the IC50 (pIC50) is < 5.30 with Lenalidomide, < 4.70 with GW-2580, < 6.30 in the assay with SGC0946 and < 8.10 in the assay with Bryostatin 1.

Take HD-MY-Z (Hodgkin lymphoma, adherent): the AUC was 0.975 with Lenalidomide, 0.98 with GW-2580, 0.983 with SGC0946 and 0.981 in the assay with Bryostatin 1. Besides, the negative logarithm of the IC50 (pIC50) is < 5.30 with Lenalidomide, < 4.70 with GW-2580, < 6.30 with SGC0946 and < 8.10 with Bryostatin 1.

On to HDLM-2 (Hodgkin lymphoma, suspension), for which the AUC stood at 0.989 with Lenalidomide, 0.982 in the assay with GW-2580, 0.983 with SGC0946 and 0.986 with Bryostatin 1. For the same cell line, the pIC50 is < 5.30 with Lenalidomide, < 4.70 with GW-2580, < 6.30 with SGC0946 and < 8.10 in the assay with Bryostatin 1.

As to HDQ-P1 (breast, adherent), the AUC came to 0.984 in the assay with Lenalidomide, 0.983 in the assay with GW-2580, 0.979 with SGC0946 and 0.948 with Bryostatin 1. The negative-log IC50 (pIC50) with Lenalidomide was < 5.30; with GW-2580, < 4.70; with SGC0946 it was < 6.30; with Bryostatin 1, < 8.10.

In the case of HEC-1 (endometrium, adherent), the AUC in the assay with Lenalidomide was 0.989; with GW-2580, 0.982; in the assay with SGC0946, 0.978; with Bryostatin 1, 0.989. Moreover, the pIC50 with Lenalidomide was < 5.30; with GW-2580 it was < 4.70; with SGC0946, < 6.30; with Bryostatin 1, < 8.10.

Regarding HGC-27 (stomach, adherent), the AUC with Lenalidomide is 0.971; in the assay with GW-2580, 0.983; with SGC0946, 0.989; with Bryostatin 1 it was 0.971. Moreover, the pIC50 with Lenalidomide is < 5.30; in the assay with GW-2580, < 4.70; with SGC0946, < 6.30; with Bryostatin 1 it was < 8.10.

Take HH (T-cell leukaemia, suspension): the AUC with Lenalidomide was 0.969; with GW-2580 it was 0.963; in the assay with SGC0946 it was 0.968; in the assay with Bryostatin 1 it was 0.976. The pIC50 with Lenalidomide was < 5.30; with GW-2580, < 4.70; in the assay with SGC0946 it was < 6.30; with Bryostatin 1 it was < 8.10.

Consider HMV-II (melanoma, adherent), for which the AUC stood at 0.982 in the assay with Lenalidomide, 0.979 with GW-2580, 0.978 with SGC0946 and 0.685 with Bryostatin 1. For the same cell line, the negative logarithm of the IC50 (pIC50) was < 5.30 in the assay with Lenalidomide, < 4.70 with GW-2580, < 6.30 in the assay with SGC0946 and 8.73 with Bryostatin 1.

For the cell line HN (head and neck, adherent), the AUC came out at 0.978 with Lenalidomide, 0.989 with GW-2580, 0.956 in the assay with SGC0946 and 0.96 with Bryostatin 1. Also, the negative-log IC50 (pIC50) with Lenalidomide is < 5.30; with GW-2580, < 4.70; with SGC0946 it was < 6.30; with Bryostatin 1, < 8.10.

As to HO-1-u-1 (head and neck, adherent), the AUC worked out at 0.981 in the assay with Lenalidomide, 0.987 in the assay with GW-2580, 0.986 with SGC0946 and 0.985 with Bryostatin 1. The pIC50 with Lenalidomide is < 5.30; in the assay with GW-2580, < 4.70; with SGC0946, < 6.30; in the assay with Bryostatin 1 it was < 8.10.

On to HOP-62 (lung adenocarcinoma, adherent), for which the AUC in the assay with Lenalidomide came out at 0.985; with GW-2580 it was 0.984; with SGC0946 it was 0.985; in the assay with Bryostatin 1, 0.941. The pIC50 was < 5.30 in the assay with Lenalidomide, < 4.70 in the assay with GW-2580, < 6.30 in the assay with SGC0946 and < 8.10 in the assay with Bryostatin 1.

In the case of “HOP-92 (large cell lung carcinoma, adherent)”, the AUC in the assay with Lenalidomide is 0.975; with GW-2580 it was 0.981; with SGC0946, 0.959; in the assay with Bryostatin 1, 0.972. In addition, the pIC50 was < 5.30 with Lenalidomide, < 4.70 with GW-2580, < 6.30 with SGC0946 and < 8.10 with Bryostatin 1.

In the case of HOS (osteosarcoma, adherent), the AUC with Lenalidomide stood at 0.977; in the assay with GW-2580 it was 0.992; with SGC0946 it was 0.984; in the assay with Bryostatin 1, 0.95. In addition, the pIC50 with Lenalidomide was < 5.30; in the assay with GW-2580, < 4.70; in the assay with SGC0946, < 6.30; in the assay with Bryostatin 1, < 8.10.

On to HSC-2 (head and neck, adherent), for which the AUC with Lenalidomide turned out to be 0.989; in the assay with GW-2580 it was 0.984; with SGC0946, 0.988; with Bryostatin 1, 0.987. In addition, the pIC50 in the assay with Lenalidomide is < 5.30; with GW-2580, < 4.70; in the assay with SGC0946 it was < 6.30; in the assay with Bryostatin 1 it was < 8.10.

Take HSC-4 (head and neck, adherent): the AUC with Lenalidomide came out at 0.846; with GW-2580, 0.979; in the assay with SGC0946 it was 0.969; in the assay with Bryostatin 1, 0.962. In addition, the pIC50 with Lenalidomide was < 5.30; in the assay with GW-2580 it was < 4.70; with SGC0946, < 6.30; with Bryostatin 1 it was < 8.10.
